According to the supplement of paper PMC7125110:
Variants at the floor of the assay are shown more often than the library holds them.

B1: glmS ribozyme (parent)
chain: AUAAAAGCGCCAGAACUACAGAAAUGUAGUUGACGAGGAGGAGGUUUAUCGAAUUUUCGGCGGAUGCCUCCAAA

Key:
Details in all cases: with glucosamine-6-phosphate
glucosamine-6-phosphate [1] = variants of: B1; experiment: self-cleavage kobs at 40 uM GlcN6P; higher = faster cleavage; RNA array
In short: (§1)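 In situ transcription by E. coli RNA polymerase produced barcoded ribozyme variants on sequenced MiSeq chips, and a hybridised Cy3 probe tracked them at 37 °C. Glucosamine-6-phosphate was flowed in at 40 μM to 10 mM in HEPES/KCl/Mg(OAc)2 buffer. kcat and KM were taken from weighted Michaelis–Menten fits of kobs values from exponential decay fits.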

glucosamine-6-phosphate [2] = variants of: B1; experiment: self-cleavage kobs at 640 uM GlcN6P; higher = faster cleavage; RNA array
In short: as §1

glucosamine-6-phosphate [3] = variants of: B1; experiment: self-cleavage kobs at 160 uM GlcN6P; higher = faster cleavage; RNA array
In short: as §1

glucosamine-6-phosphate [4] = variants of: B1; experiment: self-cleavage kobs at 2500 uM GlcN6P; higher = faster cleavage; RNA array
In short: as §1

glucosamine-6-phosphate [5] = variants of: B1; experiment: self-cleavage kobs at 10000 uM GlcN6P; higher = faster cleavage; RNA array
In short: as §1

AUAAAAGUGCCAGAACUACAGAAAUGUAGUUGAAGAGGAGGAGGUUUAUCGAAUUUUCGGCGGAUGCCUCCAAA [C8U C34A]
< 1e-05 s⁻¹: self-cleavage kobs at 40 uM GlcN6P (glucosamine-6-phosphate [1]) | self-cleavage kobs at 640 uM GlcN6P (glucosamine-6-phosphate [2]) | self-cleavage kobs at 160 uM GlcN6P (glucosamine-6-phosphate [3]) | self-cleavage kobs at 2500 uM GlcN6P (glucosamine-6-phosphate [4]) | self-cleavage kobs at 10000 uM GlcN6P (glucosamine-6-phosphate [5])

AUAAAAGUGCCAGAACUACAGAAAUGUAGUUGACGAGGAGGAGGUUUAUCGAGUUUUCGGCGUAUGCCUCCAAA [C8U A53G G63U]
< 1e-05 s⁻¹: self-cleavage kobs at 40 uM GlcN6P (glucosamine-6-phosphate [1]) | self-cleavage kobs at 2500 uM GlcN6P (glucosamine-6-phosphate [4])

AUAAAAGGGCCAGAACUACAGAAAUGUAGUUGACAAGGAGGAGGUGUAUCGAAUUUUCGGCGGAUGCCUCCAAA [C8G G35A U46G]
< 1e-05 s⁻¹: self-cleavage kobs at 40 uM GlcN6P (glucosamine-6-phosphate [1]) | self-cleavage kobs at 2500 uM GlcN6P (glucosamine-6-phosphate [4]) | self-cleavage kobs at 10000 uM GlcN6P (glucosamine-6-phosphate [5])

AUAAAAGUGCCAGAACUACAGAAAUGUAGUUGACGAGGAGGAGGUUUAUCGAAUUUUCGGCGGAUGGCUCCAAA [C8U C67G]
< 1e-05 s⁻¹: self-cleavage kobs at 40 uM GlcN6P (glucosamine-6-phosphate [1]) | self-cleavage kobs at 160 uM GlcN6P (glucosamine-6-phosphate [3]) | self-cleavage kobs at 10000 uM GlcN6P (glucosamine-6-phosphate [5])

AUAAAAGGGCCAGAACUACAGAAAUGUAGAUGACGAGGAGGAGGUUUAUCGAAUUUUCGGCGGAUGCCUCCAAA [C8G U30A]
< 1e-05 s⁻¹: self-cleavage kobs at 40 uM GlcN6P (glucosamine-6-phosphate [1]) | self-cleavage kobs at 640 uM GlcN6P (glucosamine-6-phosphate [2]) | self-cleavage kobs at 160 uM GlcN6P (glucosamine-6-phosphate [3]) | self-cleavage kobs at 10000 uM GlcN6P (glucosamine-6-phosphate [5])

AUAAAAGGGCCAGAACUACAGAAAUGUAGUUGACGAGGAGGAGGGUUAUCGAAUUUUCGGCGGAUGCCUCCAAA [C8G U45G]
< 1e-05 s⁻¹: self-cleavage kobs at 40 uM GlcN6P (glucosamine-6-phosphate [1]) | self-cleavage kobs at 640 uM GlcN6P (glucosamine-6-phosphate [2]) | self-cleavage kobs at 160 uM GlcN6P (glucosamine-6-phosphate [3]) | self-cleavage kobs at 2500 uM GlcN6P (glucosamine-6-phosphate [4]) | self-cleavage kobs at 10000 uM GlcN6P (glucosamine-6-phosphate [5])

AUAAAAGUGCCAGAACUACAGAAAUGUAGUUGACGAGGAGGAGGUUUAUCGCAUUUUCGGCGGAUGCCUCCAAA [C8U A52C]
< 1e-05 s⁻¹: self-cleavage kobs at 40 uM GlcN6P (glucosamine-6-phosphate [1]) | self-cleavage kobs at 160 uM GlcN6P (glucosamine-6-phosphate [3]) | self-cleavage kobs at 2500 uM GlcN6P (glucosamine-6-phosphate [4]) | self-cleavage kobs at 10000 uM GlcN6P (glucosamine-6-phosphate [5])

AUAAAAGGGCCAGAACUACAGAAAUGUAGUUGACGAGGAGGAGGUUUAUCAAAUUUUCGGCGGAUGCCUCCAAA [C8G G51A]
< 1e-05 s⁻¹: self-cleavage kobs at 40 uM GlcN6P (glucosamine-6-phosphate [1]) | self-cleavage kobs at 640 uM GlcN6P (glucosamine-6-phosphate [2]) | self-cleavage kobs at 160 uM GlcN6P (glucosamine-6-phosphate [3]) | self-cleavage kobs at 2500 uM GlcN6P (glucosamine-6-phosphate [4]) | self-cleavage kobs at 10000 uM GlcN6P (glucosamine-6-phosphate [5])

AUAAAAGGGCCAGAACUACAGAAAUGUAGUCGGCGAGGAGGAGGUUUAUCGAAUUUUCGGCGGAUGCCUCCAAA [C8G U31C A33G]
< 1e-05 s⁻¹: self-cleavage kobs at 40 uM GlcN6P (glucosamine-6-phosphate [1]) | self-cleavage kobs at 160 uM GlcN6P (glucosamine-6-phosphate [3]) | self-cleavage kobs at 2500 uM GlcN6P (glucosamine-6-phosphate [4])

AUAAAAGGGCCAGAACUACAGAAAUGUAGUUGACGAGGAGGAGGUUAAUCGAAUUUUCGGCGGAUGCCUCCAAA [C8G U47A]
< 1e-05 s⁻¹: self-cleavage kobs at 40 uM GlcN6P (glucosamine-6-phosphate [1]) | self-cleavage kobs at 640 uM GlcN6P (glucosamine-6-phosphate [2]) | self-cleavage kobs at 160 uM GlcN6P (glucosamine-6-phosphate [3]) | self-cleavage kobs at 2500 uM GlcN6P (glucosamine-6-phosphate [4]) | self-cleavage kobs at 10000 uM GlcN6P (glucosamine-6-phosphate [5])
